Here are results for 16 compounds from the supplement of paper PMC9446081.

The campaign covered roughly 39,000 compounds. About 220 (0.56%) showed activity. This is one part of the list.
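Also: static incubation at 37 °C against the wild-type strain, values averaged over two biological replicates.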

The subject of this assay is Escherichia coli K-12 BW25113. Nature of the assay: relative growth (OD600 normalised to plate interquartile mean) (fraction); higher = less growth inhibition, active = 0.2 or less. The settings on record: 50 µM; LB; incubation time: overnight (16-24 h).
`CC(C)(C)[S@](=O)N1Cc2cc(C(=O)N3CCCCC3)nc(-c3cccc(-c4ccc(C#N)cc4)c3)c2[C@@H]1CCO`: the relative growth is inactive: 1. The figure for `C[C@H](CO)N1C[C@H](C)[C@@H](CN(C)Cc2ccc(-c3ccccc3)cc2)Oc2ccc(NS(=O)(=O)c3ccc(Cl)cc3)cc2CC1=O` is inactive: 1.01. On to `COc1ccc(S(=O)(=O)N(C)C[C@H]2OCCCC[C@H](C)Oc3ccc(NS(=O)(=O)c4cn(C)cn4)cc3C(=O)N([C@H](C)CO)C[C@H]2C)cc1`, for which the relative growth is inactive: 0.985. Under `C[C@@H]1CCCCO[C@H](CN(C)Cc2ccc3c(c2)OCO3)[C@@H](C)CN([C@H](C)CO)C(=O)c2cc(NC(=O)C3CCCCC3)ccc2O1` stands inactive: 1.02.

For `C=CCN1C(=O)[C@]2(O[C@H](CCn3cc([C@H](O)c4ccccc4)nn3)[C@@H]([Si](C)(C)c3ccc(OC)cc3)[C@@H]2C)c2cc(N3CCOC3=O)ccc21`, the relative growth is inactive: 0.912. As for `COC1=CC(=O)C(O)=CC1=CC=Cc1ccccc1`, the relative growth is inactive: 1.08. Under `CO[C@H]1CN(C)C(=O)c2cc(NC(=O)c3ccccc3)ccc2OC[C@H](C)N(C(=O)CN(C)C)C[C@@H]1C` stands inactive: 0.938. Under `COC(=O)[C@H]1CCC(=O)[C@H](C(=O)OC)C1` stands inactive: 0.993. Take `COc1ccc(CN(C)C[C@@H]2Oc3ccc(NC(=O)Cn4cnnn4)cc3C(=O)N([C@@H](C)CO)C[C@H]2C)cc1`: the relative growth was inactive: 0.973. In the case of `C[C@@H]1CCCCO[C@H](CN(C)S(=O)(=O)c2cccs2)[C@H](C)CN([C@H](C)CO)C(=O)c2cc(NC(=O)Cc3ccccc3)ccc2O1`, the relative growth was inactive: 1.03. On to `COc1cc(OC)nc([C@@H](NC(=O)C2CCN(Cc3ccc(Oc4ccccc4)cc3)CC2)c2ccccc2C)n1`, for which the relative growth was inactive: 1.02. Under `C[C@@H]1CCCCO[C@@H](CN(C)S(=O)(=O)c2ccccc2)[C@H](C)CN([C@H](C)CO)C(=O)c2cc(NC(=O)CCC(F)(F)F)ccc2O1` stands inactive: 1; under `COc1ccccc1CNC(=O)C[C@H]1C[C@@H]2c3cc(NC(=O)Nc4ccc(C(F)(F)F)cc4)ccc3O[C@@H]2[C@@H](CO)O1`, inactive: 0.968; under `O=C(N[C@H]1C=C[C@H](CC(=O)N2CCOCC2)O[C@@H]1CO)c1ccc2c(c1)OCO2`, inactive: 0.988.

With `C[C@@H]1CN([C@@H](C)CO)C(=O)c2cc(NS(=O)(=O)c3cccs3)ccc2O[C@@H](C)CCCCO[C@@H]1CN(C)C(=O)Nc1ccccc1`, the relative growth was inactive: 1.01. The figure for `Cc1ccc(S(=O)(=O)NCC[C@H]2CC[C@@H](NS(=O)(=O)c3ccccc3Cl)[C@@H](CO)O2)cc1` is inactive: 1.
